Out of some 350,000 compounds screened, about 9,900 (2.8%) were called active. Inconclusive means that the source gave no clear call. Such entries were picked first, then a sample of the others. The call rests on the fitted dose curve; in most records, active means well fitted activation curve with a large enough effect; inconclusive means small, poorly fitted or top-dose-only effect; inactive means no such curve, though single readings can be large or run the other way. Potencies of inconclusive entries are left out as doubtful fits.
test: A quantitative high throughput screen for small molecules that induce DNA re-replication in MCF 10a normal breast cells.; further: nearly all actives have a fitted effect of over 50% in size; on activity, positive = re-replication: % of control where 0% means no effect; conditions: MCF 10A DNA re-replication, Hoechst nuclear intensity, 48 h; activity, positive = re-replication: at 46.1 µM (top of the series)
Potency means the concentration at half of the fitted maximal effect; tags describe the fitted curve by direction and shape.

| SMILES | Potency | activity, positive = re-replication |
| --- | --- | --- |
| COc1cc(COc2ccc3c(C)c(Cc4ccccc4)c(=O)oc3c2C)cc(OC)c1OC | inconclusive [activator, partial curve, poor fit] |  |
| CC[C@@H]1[C@H]2CCCC(=O)N3CC[C@@H](C[C@@H]1Nc1ccccc1)[C@@H]23 |  | inactive: -5.82% |
| CC(=O)Nc1cccc(NC(=O)CSc2ncc(-c3ccc(Cl)cc3)n2Cc2ccco2)c1 | active: 16.4 µM |  |
| CCN1C(=O)[C@H]2[C@@H](c3ccc(-c4ccc(F)cc4)cc3)N[C@@](Cc3ccccc3)(C(=O)OC)[C@H]2C1=O | inconclusive [activator, single point] |  |
| C[C@]12C(=O)N(c3cccc(F)c3)C(=O)N1[C@@H]1c3ccccc3OC[C@@H]1[C@H]2c1ccccc1 |  | inactive: 14.8% |
| NC(=O)[C@H]1CC2(CC(c3cccc(NC(=O)CC(c4ccccc4)c4ccccc4)c3)=NO2)CN1C(=O)C(c1ccccc1)c1ccccc1 (stereo not given in full) | inconclusive [activator, full curve] |  |
| CN(C(=O)c1c(Cl)nc2sccn12)C1CCCCC1 | inconclusive [activator, single point] |  |
| COc1cc(OC)c(OC)cc1CN1CCSCC1 | inconclusive [activator, partial curve, poor fit] |  |
| OCCOCCN1CCN(C2=Nc3ccccc3Sc3ccccc32)CC1 | inactive |  |
| COc1ccc(CCN(C(=O)c2snc(C(N)=O)c2N)C(C(=O)NCC2CCCO2)c2ccc(F)cc2)cc1OC (stereo not given) |  | inactive: 8.14% |
| COc1ccc(/C=N/NC(=O)c2ccc3nc[nH]c3c2)c(OC)c1 | inconclusive [activator, full curve, poor fit] |  |
| CC[N+](CC)(CC#Cc1ccccc1)CC(=O)c1ccc(Cl)cc1 | inconclusive [activator, partial curve, poor fit] |  |
| Nc1nn(-c2ccccc2)c(N)c1N=Nc1ccccc1 | active: 5.8 µM |  |
| O=C(COC(=O)/C=C/c1ccc(S(=O)(=O)N2CCOCC2)cc1)NCc1ccc2c(c1)OCO2 | inconclusive [activator, partial curve, poor fit] |  |
| COc1ccc(OC(=O)c2cnc3n(c2=O)CCS3)cc1 | inconclusive [activator, full curve, poor fit] |  |
| Cc1cccc(N(C)S(=O)(=O)c2ccc(-c3cc(C)no3)s2)c1 | inconclusive [activator, full curve, poor fit] |  |
| COc1cc2cc(/C=C/C(=O)c3ccco3)c(Cl)nc2cc1OC | active: 23.1 µM |  |
| COC(=O)c1ccccc1NC(=O)CC(NCc1ccccc1)C(=O)O (stereo not given) |  | inactive: -0.192% |
| COCC(C)n1c(-c2ccc3c(c2)NC(=O)CO3)csc1=Nc1ccc(OC(F)F)cc1 (stereo not given) | active: 3.26 µM |  |
| CC(C)C(=O)Nc1ccc2c(c1)nc(CCN1CCCCC1)n2C | inconclusive [activator, partial curve, poor fit] |  |
| Fc1ccc(CN2CCCN(C(=S)Nc3ccc(F)cc3)CC2)cc1 | inconclusive [activator, single point] |  |
| COC(=O)c1cccc(C(=O)N2CCCC(Nc3ccc(C)c(C)c3)C2)c1 (stereo not given) |  | inactive: 7.51% |
| COc1ccc(C(C(=O)NC(C)(C)C)N(Cc2cccnc2)C(=O)CCC(=O)Nc2cc(C)on2)cc1 (stereo not given) |  | inactive: -2.51% |
| Cc1ccc(NS(=O)(=O)c2cc3c4c(cccc4c2)C(=O)NC3=O)cc1C | active: 14.6 µM |  |

| SMILES | Potency | activity, positive = re-replication |
| --- | --- | --- |
| COc1cccc(CNC(=O)COc2cccc3c2OC(C)(C)C3)c1 | inconclusive [activator, partial curve, poor fit] |  |
| COc1cc2c(cc1OC)C(C)N(C(=O)c1c(C)noc1C)CC2 (stereo not given) | active: 9.2 µM |  |
| COc1cc(C(=O)OCC(=O)N2CCN(C(C)=O)CC2)ccc1OCC(C)C | inconclusive [activator, single point] |  |
| Cc1[nH]c(=O)nc(SCc2ccc(Cl)c(Cl)c2)c1C#N | inconclusive [activator, single point] |  |
| O=C(c1ccc([N+](=O)[O-])cc1)n1nc(-c2ccccc2)nc1NCc1ccc(F)cc1 | inconclusive [activator, partial curve, poor fit] |  |
| COc1ccccc1NC(=O)CN1CCN(CC(=O)Nc2ccccc2Cl)CC1 |  | inactive: 1.99% |
| CC(C)CCN(C(=O)CNC(=O)c1cccs1)C(C(=O)NC1CCCCC1)c1cccnc1 (stereo not given) | inconclusive [activator, partial curve, poor fit] |  |
| Cc1nc(Oc2ccc(Cl)cc2)c2oc3ccccc3c2n1 |  | inactive: 1.62% |
| CS(=O)(=O)c1ccc(C(=O)Nc2ccccc2N2CCOCC2)c(Cl)c1 |  | inactive: -2% |
| N#Cc1c(NC(=O)CCC(=O)O)sc2c1CCCC2 |  | inactive: -0.785% |
| O=C(Cc1ccc(Cl)cc1)Nc1ncc([N+](=O)[O-])s1 | inconclusive [activator, single point] |  |
| CN(C(=O)COC(=O)c1cc([N+](=O)[O-])ccc1Cl)c1ccccc1 |  | inactive: 0.78% |
| CCNC(=O)c1ccc(CSc2nc3ccccc3s2)cc1 |  | inactive: 9.73% |
| CCOC(=O)C1CCN(C(=O)c2ccc3c(c2)NC(=O)/C(=C/c2ccccc2)S3)CC1 | inconclusive [activator, single point] |  |
| O=C(O)CCN1C(=O)/C(=C\c2cccc(Oc3ccccc3)c2)SC1=S | inconclusive [activator, single point] |  |
| C=CCOc1ccccc1C1NC(=O)NC(C)=C1C(=O)NCc1ccccc1 (stereo not given) | inconclusive [activator, partial curve, poor fit] |  |
| COCCn1c(=O)[nH]c2cc(C(=O)N3CCN(c4ccc(Cl)cc4)CC3)ccc2c1=O | inconclusive [activator, partial curve, poor fit] |  |
| CCC(NC(=O)c1ccccc1NC(=O)C(C)(C)C)C(=O)N1CC(C)OC(C)C1 (stereo not given) |  | inactive: 0.119% |
| Cc1ccc(S(=O)(=O)N2CCCCC2)cc1NC(=O)CSc1nncn1-c1ccccc1 |  | inactive: -6.41% |
| CN(CCCNC(=O)c1cc2c(=O)[nH]c3ccccc3c2n1C)Cc1ccccc1 | inconclusive [activator, single point] |  |
| Cc1ccc(NC(=O)c2sc(N)nc2-c2ccc([N+](=O)[O-])cc2)c(C)c1 |  | inactive: -3.47% |
| N#CC1=C(N)SC(N)=C(C#N)C1c1cccc(Oc2ccccc2)c1 | inconclusive [activator, single point] |  |
| O=C(CSC(=S)N1CCSCC1)c1ccccc1 | inconclusive [activator, partial curve, poor fit] |  |
| COc1ccc(C(=O)O)cc1NC(=S)NC(=O)/C=C/c1ccc(C(C)C)cc1 | inconclusive [activator, partial curve, poor fit] |  |

| SMILES | Potency | activity, positive = re-replication |
| --- | --- | --- |
| CCCc1cc2c(cc1NC(=O)Cc1ccccc1)OCO2 | inconclusive [activator, partial curve, poor fit] |  |
| Cc1ccc(C)c(NC(=S)NNC(=O)c2cc3c(s2)CCC(C)C3)c1 (stereo not given) | inconclusive [activator, partial curve, poor fit] |  |
| O=C(NCc1ccco1)c1cccc2c1C(=O)c1ccc(N3CCC(Cc4ccccc4)CC3)cc1S2(=O)=O | inconclusive [activator, partial curve, poor fit] |  |
| Cc1onc(-c2ccccc2Cl)c1NC(=O)NCc1cccs1 |  | inactive: -10.8% |
| CC1CCCCN1S(=O)(=O)c1ccc(C(=O)Nc2nnc(C3=COCCO3)o2)cc1 (stereo not given) | inconclusive [activator, partial curve, poor fit] |  |
| Cc1nc(SCC(=O)Nc2ccccc2Cl)c2c(C)c(C)sc2n1 | active: 23.1 µM |  |
| COc1cc(/C=C/C(=O)c2ccc(C)c([N+](=O)[O-])c2)cc(OC)c1O | active: 9.2 µM |  |
| CC1CN(CC(O)COCc2ccc3c(c2)OCO3)CC(C)O1 (stereo not given) |  | inactive: 1.51% |
| COc1ccc(CNC(=O)CC23CC4CC(CC(C4)C2)C3)cc1OC |  | inactive: -7.32% |
| O=C(O)c1cccc(-n2cccc2/C=C2\NC(=O)N(Cc3ccc(F)cc3)C2=O)c1 | inconclusive [activator, partial curve, poor fit] |  |
| Cc1[nH]c2ccccc2c1SCC(=O)NNC(=O)Nc1ccc(OC(F)(F)F)cc1 | active: 13 µM |  |
| Cn1cccc1/C=C1\Cc2ccccc2C1=O |  | inactive: 8.01% |
| Cc1ccnc(NS(=O)(=O)c2cccc([N+](=O)[O-])c2)c1 |  | inactive: 18.6% |
| O=C(NCCCN1CCCC1=O)c1cc(S(=O)(=O)N2CCOCC2)ccc1Cl |  | inactive: -2.78% |
| Cc1[nH]c2ccccc2c1N=Nc1ccc(F)cc1 |  | inactive: -3.88% |
| CN1OC[C@@H]2CN(Cc3cc(Cl)cc(Cl)c3)[C@H](c3cccc(Br)c3)C[C@@H]21 | inconclusive [activator, partial curve, poor fit] |  |
| COc1ccc(NC(=O)c2ccc(Cl)nc2)cc1S(=O)(=O)N1CCOCC1 |  | inactive: 2.11% |
| N#CCC(=O)N/N=C/c1ccc(OC2CSC2)cc1 | inconclusive [activator, single point] |  |
| COc1ccc(NC(=O)CSc2nc3c(cc2C#N)CN(C)CC3)cc1 |  | inactive: -2.09% |
| CCn1nc(C)cc1C(=O)N1CCCC(C(=O)c2ccc(Oc3ccccc3)cc2)C1 (stereo not given) | inconclusive [activator, partial curve, poor fit] |  |
| O=C(COc1ccccc1Cl)Nc1cccc(S(=O)(=O)N2CCCC2)c1 | inconclusive [activator, single point] |  |
| CCOC(=O)C1Cn2c(nc3c(c2=O)C(C)(CC)Cc2ccccc2-3)S1 (stereo not given) | inconclusive [activator, partial curve, poor fit] |  |
